Test results taken from publication PMC6919601, “Identification of Plasmodium dipeptidyl aminopeptidase allosteric inhibitors by high throughput screening” (PLoS ONE, 2019).
In all, about 110,000 compounds went through this assay and about 230 (0.21%) showed an effect of 50% or more. The list shows a part of the results.

Molecular target: DPAP1 (Plasmodium falciparum, UniProt Q8IIJ9)
Assay: primary screen, percent inhibition; read by cleavage of a fluorogenic dipeptide substrate; higher = more effect of the substance
Set-up: species or system P. falciparum D10 trophozoite lysates; single well
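Also: 30 min substrate incubation versus DMSO and 10 µM JCP410 controls.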

Sequence of DPAP1 (Q8IIJ9 whole entry, looked up): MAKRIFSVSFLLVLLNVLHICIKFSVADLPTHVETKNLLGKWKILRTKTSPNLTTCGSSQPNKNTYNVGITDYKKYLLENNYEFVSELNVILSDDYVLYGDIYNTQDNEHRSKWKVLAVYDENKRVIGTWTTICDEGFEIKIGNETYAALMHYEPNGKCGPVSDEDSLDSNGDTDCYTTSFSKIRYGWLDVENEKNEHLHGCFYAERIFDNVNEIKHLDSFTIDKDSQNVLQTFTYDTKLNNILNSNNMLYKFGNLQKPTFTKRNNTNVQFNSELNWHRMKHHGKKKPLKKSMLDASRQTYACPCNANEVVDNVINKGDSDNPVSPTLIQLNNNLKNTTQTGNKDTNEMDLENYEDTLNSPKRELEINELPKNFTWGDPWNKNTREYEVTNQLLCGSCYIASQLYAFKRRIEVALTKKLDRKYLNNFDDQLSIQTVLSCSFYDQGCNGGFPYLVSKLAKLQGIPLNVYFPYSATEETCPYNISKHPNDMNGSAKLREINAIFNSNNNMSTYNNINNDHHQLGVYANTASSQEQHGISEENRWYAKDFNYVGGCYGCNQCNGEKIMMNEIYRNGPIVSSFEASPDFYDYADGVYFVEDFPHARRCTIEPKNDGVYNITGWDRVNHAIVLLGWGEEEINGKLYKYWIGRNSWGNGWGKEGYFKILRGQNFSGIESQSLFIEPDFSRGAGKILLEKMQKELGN

Structure (SMILES) | % Inhibition @ 10 uM
CN(C)S(=O)(=O)n1cc(/C=C(\NC(=O)c2ccccc2Cl)C(=O)NCCO)c2ccccc21 | -3.52%
CCc1nnc(NC(=O)CSc2ccc3nnc(-c4ccc(OC)cc4)n3n2)s1 | -1.44%
COc1ccc(C2C3=C(O)CCCC3=Nc3nc(SC)nn32)c(OC)c1 (stereo not shown) | 1.73%
CC(C)CC(NC(=O)C1CCCCC1)C(=O)NCCc1ccccc1 (stereo not shown) | -2.49%
OC1CC(c2ccccc2)NC2(CCCC2)C1 (stereo not shown) | 3.18%
c1ccc(C2=NNC(c3ccccc3)=NN2)cc1 | 3.74%
COc1ccc(Cn2c(C(=O)O)c(CNCc3ccc(OC(C)C)cc3)c3ccccc32)cc1 | 1.73%
O=C(CCN1C(=O)C2C3C=CC(C3)C2C1=O)Nc1ccccc1C(F)(F)F (stereo not shown) | 0.583%
O=C(O)Cn1nc(-c2ccccc2)ccc1=O | -0.256%
Cc1ccc(OCC(=O)Nc2ccc(Br)c(Cl)c2)cc1 | -7.25%
CN1CCN(C(=O)c2ccc(S(=O)(=O)N3CCCCC3)cc2)CC1 | -3.63%
NC(=O)c1cc2c(nc1O)CCc1c-2[nH]c2ccccc12 | 7.92%
Clc1ccc(OCCSCc2nc3ccccc3[nH]2)cc1 | 9.18%
O=C1c2ccccc2NC(c2ccc(O)cc2)N1Cc1ccco1 (stereo not shown) | 1.35%
CCN1CCC(N2CCN(c3cccc(Cl)c3)CC2)CC1 | -0.0908%
CC1=C(C(=O)Nc2cccc(C)n2)C(c2cccc(Br)c2)C2=C(O)CCCC2=N1 (stereo not shown) | 2.85%
Cc1cccc(C(=O)N2CCN(c3ccccc3)CC2)c1 | -5.26%
COc1ccc(CN2CCN(C/C=C/c3ccccc3)CC2)cc1C | 6.25%
COC(=O)C(Cc1ccc(O)cc1)NC(=O)c1ccco1 (stereo not shown) | 5.54%
CCCOc1ccc(C2C(C(=O)c3ccc4c(c3)CC(C)O4)=C(O)C(=O)N2CC2CCCO2)cc1 (stereo not shown) | -13.5%
COc1cccc(CNC(=O)c2ccc(CS(=O)c3ccccc3Cl)o2)c1 (stereo not shown) | -0.434%
CC(C)(C)c1cc(C(c2ccccn2)N2CCN(CCO)CC2)cc(C(C)(C)C)c1O (stereo not shown) | -1.52%

Structure (SMILES) | % Inhibition @ 10 uM
NC(=O)C1CCCN(Cc2cc(Br)cs2)C1 (stereo not shown) | 2.1%
Cc1ccccc1S(=O)(=O)Cc1ccc(C(=O)NCCC(C)C)o1 | 0.458%
O=C(Cc1ccccc1)Nc1ccc(S(=O)(=O)N2CCCCC2)cc1 | 0.907%
Fc1ccc(CN2CCN(c3ncccn3)CC2)c(F)c1 | -3.72%
CC1=CC(=C2C(=O)NC(=O)NC2=O)C=C(C(F)(F)F)N1CCO | -1.86%
COCCNC(=O)c1cc(-c2ccccn2)nc2ccc(S(=O)(=O)N3CCC(C)CC3)cc12 | 2.35%
O=C(CCc1nnc2n(CCc3ccccc3)c(=O)c3ccccc3n12)N1CCOCC1 | 0.981%
O=C(CC1Nc2ccccc2NC1=O)NCc1ccccc1 (stereo not shown) | 8.63%
CC(C)CCNC(=O)CCCc1nnc2n(C)c(=O)c3sccc3n12 | 0.0603%
CCC(C)(C)C1CCc2c(sc(NC(=O)c3cccs3)c2C(N)=O)C1 (stereo not shown) | -3.49%
CCCOc1ccccc1C1CC(=O)NC2=C1C(=O)CC(C)(C)C2 (stereo not shown) | -5.2%
COc1ccccc1CNS(=O)(=O)c1cccs1 | -2.65%
CC(O)/C=C/c1ccc2ccccc2n1 (stereo not shown) | 4.51%
COc1ccccc1N1C(=O)C2C3CC(c4ccccc4)C(C3)C2C1=O (stereo not shown) | -7.96%
Cc1cc(C)c(C#N)c(Nc2cccc(C(F)(F)F)c2)n1 | 1.61%
Cn1c(=O)c2c(ncn2CC(=O)N2CCN(c3cccc(Cl)c3)CC2)n(C)c1=O | -1.84%
Cc1cc2c(c(C)c1C)CC(C)(C)NC2=O | -0.703%
O=S(=O)(Nc1ccc(Cl)cc1)c1ccc(-c2ccccc2)cc1 | -2.03%
CCN(CC)CCCN(C)C(=O)c1nc(-c2ccc(Cl)cc2)n2c1CCCCC2 | 4.39%
Cn1c(C(=O)NCc2cccnc2)cc2oc3ccccc3c21 | -0.281%
CCS(=O)(=O)c1nc(S(=O)(=O)c2ccc(C)cc2)c(N(C)Cc2ccccc2)s1 | -2.25%
CCn1cc(C2=NOC(C(=O)O)C2)c(C)n1 (stereo not shown) | 0.291%

Structure (SMILES) | % Inhibition @ 10 uM
Cn1cc(Br)c(C(=O)NC23CC4CC(CC(C4)C2)C3)n1 | 2.13%
CC1CCCN(C(=O)Cn2c(-c3nonc3N)nc3ccccc32)C1 (stereo not shown) | -2.68%
Cc1c(C)c2c(cc(C)c3c(C(C)(C)C)coc32)oc1=O | -1.37%
Cc1nc2cc(-c3ccccc3)nn2c(C)c1CCC(=O)N1CCOCC1 | 4.34%
N#CC1=C(N)OC2=C(C(=O)CC(c3ccccc3)C2)C1c1ccc(F)c(Br)c1 (stereo not shown) | 15.7%
O=[N+]([O-])CCc1cc2ccccc2[nH]1 | -2.32%
O=C1c2ccccc2C(=O)N1c1ccc(OC(F)(F)F)cc1 | 2.91%
CCCNC(=O)c1c(C)c(C(=O)OCC)n(C)c1C | -3.44%
COc1ccc(N2C(=O)c3cccc4cccc(c34)C2=O)cc1OC | 0.727%
CCc1ccc(C2C(C#N)=C(N)OC3=C2C(=O)CCC3)cc1 (stereo not shown) | -4.94%
CC(C)c1ccc(-c2c(NCc3cccs3)c(=O)c2=O)cc1 | -0.539%
O=C(CCc1ccc(S(=O)(=O)NC2CCCCC2)cc1)NCC1CCCO1 (stereo not shown) | 3.53%
CCCNC(=O)c1nc(-c2ccc(Cl)cc2)n2c1CCCCC2 | 0.453%
COCCN1C(=O)c2ccccc2C(C(=O)NCc2ccc(F)cc2)C1c1ccc(F)cc1 (stereo not shown) | 7.29%
Cc1cc(NC(=O)c2cc(-c3ccc(Cl)s3)nc3ccccc23)no1 | -4.77%
CCCC[C@H](NC(=O)[C@H](Cc1ccccc1)NC(=O)N1CCOCC1)C(=O)c1nc2ccccc2o1 | -1.83%
Cc1cc(C)c(C(=O)c2ccc(C(=O)Nc3ccc(N(C)C)cc3)cc2)c(C)c1 | 2.76%
COc1cccc(C(=O)Cn2c(Br)nc3c2c(=O)n(C)c(=O)n3C)c1 | -2.83%
CC1C2C(c3ccccc3)N(C)C(=O)N(C)C2N(C)C(=O)N1C (stereo not shown) | 1.87%
Nc1sc2c(c1C(=O)Nc1cccc(C(F)(F)F)c1)CCCC2 | 8.03%
